In the supplement of paper PMC12462457:
Where a name gives a salt, the structure may show the parent alone. ± gives the standard deviation of the averaged measurements. Some of the results follow.

Tested on: OVCAR8
Experiment: cell count relative to DMSO vehicle (fold change); OVCAR8 is a high-grade serous ovarian cancer line and CX-5461 an RNA polymerase I inhibitor; higher = more surviving senescent cells (less killing)
Conditions: senescence inducer: CX-5461 3 µM 48 h, then 6 d recovery (CX senescent), exposure time 24 h

Structure (SMILES)	cell count (compound dose 1 µM)	cell count (compound dose 5 µM)
Clc1ccc(C(c2ccccc2Cl)C(Cl)Cl)cc1 (centres undefined)	1.16 ± 0.076	1.05 ± 0.025
O=C(O)C1(c2ccc(-c3ccc(Cl)c(Cl)c3)c(F)c2)CC1 [Itanapraced]	1.03 ± 0.26	1.08 ± 0.059
CNCc1ccc(C)c(NC(=O)c2ccc(Nc3nc(-c4ccccc4)c4ccccc4n3)cc2)c1	1.02 ± 0.11	1.07 ± 0.03
CCCc1cc2c(N3CCN(C4=NCC(C)(C)S4)CC3)ncnc2s1 [MI-2 (Menin-MLL Inhibitor)]	1.16 ± 0.16	0.989 ± 0.059
CCCCN1CCCC[C@H]1C(=O)Nc1c(C)cccc1C [Levobupivacaine (hydrochloride)]	1.04 ± 0.1	0.979 ± 0.19
Fc1ccc(Nc2nc(Nc3ccc(-c4nc5ccccc5[nH]4)cc3)nc(N3CCOCC3)n2)cc1	0.867 ± 0.14	0.826 ± 0.11
O=C(Nc1ccc(CN2CCOCC2)cc1)c1ccc(-c2cccc(Cl)c2)o1	0.969 ± 0.036	1.02 ± 0.033
Cc1cc(F)c(C(=O)Nc2cccc(-c3nncn3C(C)C)n2)cc1-n1cnc(C2CC2)c1 [Selonsertib]	1.04 ± 0.17	0.843 ± 0.2
CNC(=O)COc1cc2cc(Nc3nc(N4CCC(C(=O)N(C)C)CC4)ncc3Cl)cc(OC)c2n(C)c1=O	1.09 ± 0.22	1.1 ± 0.16
COc1cc(Nc2ncc3c(n2)-c2ccc(Cl)cc2C(c2c(F)cccc2OC)=NC3)ccc1C(=O)O [Alisertib (MLN8237)]	0.939 ± 0.059	0.739 ± 0.079
O=c1cc(N2CCOCC2)oc2c(-c3ccccc3)cccc12	1.04 ± 0.021	1.26 ± 0.076
COc1ccc2cc1Oc1ccc(cc1)C[C@H]1c3cc(c(OC)cc3CCN1C)Oc1c(O)c(OC)cc3c1[C@H](C2)N(C)CC3 [Fangchinoline]	1.04 ± 0.11	1.0895 ± 0.00071
Nc1cc(C(F)(F)F)c(-c2cc(N3CCOCC3)nc(N3CCOCC3)n2)cn1 [Buparlisib (BKM120, NVP-BKM120)]	1.2 ± 0.18	1.27 ± 0.33
O=C(O)c1cc(=O)c2ccccc2[nH]1	1.15 ± 0.095	1.233 ± 0.0014
O=C(O)c1cc(=O)c2ccccc2[nH]1 [Kynurenic acid (sodium)]	1.2 ± 0.16	1.14 ± 0.14
Clc1cccc(CN=C2Nc3ccccc3NC23CCNCC3)c1 [Liproxstatin-1]	1.1 ± 0.14	1.04 ± 0.044
C[C@H]1[C@H](C)CC[C@]2(C(=O)O)CC[C@]3(C)C(=CC[C@@H]4[C@@]5(C)C[C@@H](O)[C@H](O)[C@@](C)(CO)[C@@H]5[C@H](O)C[C@]43C)[C@H]12 [Madecassic acid]	1.18 ± 0.15	1.25 ± 0.2
CNc1ccc([N+](=O)[O-])c(Nc2ccc3[nH]ncc3c2)n1	0.59 ± 0.013	0.27 ± 0.023
O=C(O)CCC(=O)c1ccc(-c2ccccc2)cc1	1.09 ± 0.11	1.14 ± 0.14
CCOC(=O)c1ccc(NC2CCCCC2)c(N)c1 [Ferrostatin-1]	0.966 ± 0.069	0.852 ± 0.12
C[C@@H]1O[C@@H](O[C@H]2[C@H](O[C@H]3CC[C@@]4(C)[C@@H](CC[C@]5(C)[C@@H]4CC=C4[C@@H]6CC(C)(C)CC[C@]6(C(=O)O)CC[C@]45C)[C@]3(C)CO)OC[C@H](O)[C@@H]2O)[C@H](O)[C@H](O)[C@H]1O [alpha-Hederin]	1.24 ± 0.23	1.22 ± 0.14
CC1(C)CC[C@]2(NC(=O)C(C)(F)F)CC[C@]3(C)[C@H](C(=O)C=C4[C@@]5(C)C=C(C#N)C(=O)C(C)(C)[C@@H]5CC[C@]43C)[C@@H]2C1 [Omaveloxolone]	0.94 ± 0.0057	0.002 ± 0.0028
O=C(NNc1nc2cc(F)ccc2n2cccc12)c1cnccn1	1.27 ± 0.019	1.2245 ± 0.00071

Structure (SMILES)	cell count (compound dose 1 µM)	cell count (compound dose 5 µM)
CCN1C(=O)C=CC1=O [N-Ethylmaleimide]	1.06 ± 0.15	1.03 ± 0.11
COc1ccc2[nH]cc(/C=C3\C(=O)Nc4ccc(NC(=O)CCN5CCCCC5)cc43)c2c1	1.13 ± 0.064	0.831 ± 0.051
Cc1nnc(NC(=O)c2nc(S(=O)(=O)Cc3ccc(F)cc3)ncc2Cl)s1	0.99 ± 0.045	0.425 ± 0.04
C[C@H](Nc1ccc2c(c1)OCCn1cc(N3C(=O)OC[C@H]3C(F)F)nc1-2)C(N)=O	1.13 ± 0.17	1.1 ± 0.083
CC1(C)C=C(CN2C/C(=C\c3ccc(F)cc3)C(=O)/C(=C/c3ccc(F)cc3)C2)C(C)(C)N1O	1.15 ± 0.24	1.06 ± 0.19
COc1ccc(-c2cc(Nc3ccnc(N4CCOCC4)n3)on2)cc1	1.2 ± 0.15	1.068 ± 0.0028
COc1ccc(/C=C/c2cc(O)cc(O[C@@H]3O[C@H](CO)[C@@H](O)[C@H](O)[C@H]3O)c2)cc1O [Rhapontin]	1.08 ± 0.087	1.21 ± 0.051
Cc1c2c(nn1C)CSCc1cc(n(C)n1)CSc1cc(c3ccccc3c1)OCCCc1c(C(=O)O)n(C)c3c-2c(Cl)ccc13	1.187 ± 0.0021	1.22 ± 0.049
COc1ccc(-c2ccc3cc(C(=O)O)ccc3c2)cc1C12CC3CC(CC(C3)C1)C2	1.19 ± 0.084	1.22 ± 0.081
C=CCNC1=C2C[C@@H](C)C[C@H](OC)[C@H](O)[C@@H](C)/C=C(\C)[C@H](OC(N)=O)[C@@H](OC)/C=C\C=C(/C)C(=O)NC(=CC1=O)C2=O [Tanespimycin]	1.19 ± 0.27	1.08 ± 0.24
CNc1nc(C)c(-c2nc(Nc3cccc(S(N)(=O)=O)c3)ncc2F)s1	1.19 ± 0.23	1.14 ± 0.028
CN1C(=O)NC(Cc2c[nH]c3c(Cl)cccc23)C1=O (racemic) [Necrostatin 2 (racemate)]	1.12 ± 0.18	0.929 ± 0.088
O=C(CCl)NCc1cccc2c1C(=O)N(C1CCC(=O)NC1=O)C2=O (centres undefined)	1.02 ± 0.18	0.901 ± 0.16
O=C1Nc2ccccc2C1=O [Isatin]	1.16 ± 0.1	0.941 ± 0.16
COc1ccc(-c2cc(=O)c3c(OC)c(OC)c(OC)c(OC)c3o2)cc1	1.12 ± 0.085	0.991 ± 0.0071
CO[C@H]1C[C@@H]2CC[C@@H](C)[C@@](O)(O2)C(=O)C(=O)N2CCCC[C@H]2C(=O)O[C@H]([C@H](C)C[C@@H]2CC[C@@H](OC(=O)C(C)(CO)CO)[C@H](OC)C2)CC(=O)[C@H](C)/C=C(\C)[C@@H](O)[C@@H](OC)C(=O)[C@H](C)C[C@H](C)/C=C/C=C/C=C/1C [Temsirolimus]	1.17 ± 0.3	1.2 ± 0.28
COc1ccc(-c2cc(=O)c3c(OC)c(OC)c(OC)c(OC)c3o2)cc1OC	1.009 ± 0.0057	0.875 ± 0.076
Cn1nnc2c(C(N)=O)ncn2c1=O	1.14 ± 0.19	1.11 ± 0.14
C=C1C(=O)O[C@H]2[C@H]1CC/C(C)=C/CC[C@@]1(C)O[C@@H]21 [Parthenolide]	0.963 ± 0.025	0.957 ± 0.067
COc1ccc(-c2cc3nccn3c(Nc3ncccc3C(N)=O)n2)cc1OC [BAY 61-3606 (dihydrochloride)]	0.873 ± 0.011	0.577 ± 0.042
COCCOc1cnc(Sc2cc(C)c(-c3csc(NC(=O)c4ccncc4)n3)c(C)c2)cn1 [T-1101 (tosylate)]	1.16 ± 0.33	1.18 ± 0.31
Cc1ccc(C(=O)Cn2c3c(sc2=N)CCCC3)cc1 [Pifithrin-α (hydrobromide)]	1.08 ± 0.13	0.985 ± 0.016
CNC(=O)[C@H]1O[C@@H](n2cnc3c(NCc4ccc(I)cc4)ncnc32)[C@H](O)[C@@H]1O [Piclidenoson]	1.02 ± 0.23	0.429 ± 0.024

Structure (SMILES)	cell count (compound dose 1 µM)	cell count (compound dose 5 µM)
Cn1cnc2c(F)c(Nc3ccc(Br)cc3Cl)c(C(=O)NOCCO)cc21 [Selumetinib (AZD6244)]	1.24 ± 0.23	1.25 ± 0.018
CC1(C)O[C@@H]2C[C@H]3[C@@H]4C[C@H](F)C5=CC(=O)C=C[C@]5(C)[C@H]4[C@@H](O)C[C@]3(C)[C@]2(C(=O)CO)O1 [Flunisolide]	1.19 ± 0.4	1.02 ± 0.07
CCOC(=O)c1c2c3c(cccc3[nH]c1=O)C(=O)c1ccccc1-2	0.959 ± 0.026	0.974 ± 0.1
COc1ccc(-c2cc(=O)c3c(OC)cc(OC)cc3o2)cc1	1.1 ± 0.12	1.03 ± 0.15
CC(ONC(=O)c1cc(C(F)(F)F)cc(C(F)(F)F)c1)C(=O)Nc1ccc(Cl)cc1 (centres undefined)	1.06 ± 0.14	1.08 ± 0.26
CCCCC[C@H](CC(=O)NO)C(=O)N[C@H](C(=O)N1CCC[C@H]1CO)C(C)C [Actinonin]	1.12 ± 0.33	1.14 ± 0.13
Oc1ccc(C2=Cc3ccc(O)cc3OC2)cc1 [Phenoxodiol]	1.09 ± 0.15	1.08 ± 0.1
O=C(O)c1cc(O)c(O)c(O)c1	1.16 ± 0.16	1.22 ± 0.03
COc1cc(C(=O)O)cc(O)c1O [3-O-Methylgallic acid]	1.15 ± 0.14	1.07 ± 0.022
Cc1c(C)c2c(c(C)c1O)CC[C@@](C)(CCC[C@H](C)CCC[C@H](C)CCCC(C)C)O2 [α-Vitamin E]	1.06 ± 0.029	1.11 ± 0.24
Cc1cc(CS(=O)(=O)c2ccccc2)cc(OCc2ccc(CN3CCC[C@@H]3CO)cc2)c1	1.13 ± 0.12	1.16 ± 0.081
Cc1cc(CS(=O)(=O)c2ccccc2)cc(OCc2ccc(CN3CCC[C@@H]3CO)cc2)c1 [PF-543 (Citrate)]	1.16 ± 0.11	1.1 ± 0.042
NC(=O)NO	1.06 ± 0.088	1.17 ± 0.16
C[C@@H]1CC[C@@]2(OC1)O[C@H]1C[C@H]3[C@@H]4CC=C5C[C@@H](O[C@@H]6O[C@H](CO)[C@@H](O)[C@H](O[C@@H]7O[C@H](CO)[C@@H](O)[C@H](O)[C@H]7O)[C@H]6O[C@@H]6O[C@@H](C)[C@H](O)[C@@H](O)[C@H]6O)CC[C@]5(C)[C@H]4CC[C@]3(C)[C@H]1[C@@H]2C [Gracillin]	1.04 ± 0.16	0.8295 ± 0.0021
CC(C)(C)c1cc(NC(=O)Nc2ccc(-c3cccc4c(N)nccc34)cc2)no1	1.06 ± 0.23	0.9 ± 0.22
COc1c(OC)c2occc2c2oc(=O)ccc12	0.92 ± 0.081	1.07 ± 0.28
Cc1ccccc1C(=O)N1CCc2cc(-c3nc(NC(=O)Cc4ccc5c(c4)OCO5)sc3C)ccc21	1.017 ± 0.0057	1 ± 0.17
Nc1nc(Nc2ccc(S(N)(=O)=O)cc2)nn1C(=O)c1c(F)cccc1F	0.797 ± 0.15	0.45 ± 0.24
Cc1[nH]c(/C=C2\C(=O)Nc3ccc(S(=O)(=O)Cc4c(Cl)cccc4Cl)cc32)c(C)c1C(=O)N1CCC[C@@H]1CN1CCCC1	1.22 ± 0.19	0.554 ± 0.19
CC(C)[C@H](NC(=O)c1ccc2ccccc2n1)C(=O)N[C@@H](CC(=O)O)C(=O)COc1c(F)cccc1F	0.949 ± 0.15	0.907 ± 0.21
Cc1ccc(NC(=S)NNc2c([N+](=O)[O-])cc(C(F)(F)F)cc2[N+](=O)[O-])cc1Cl	1.17 ± 0.12	1.2 ± 0.32
